Measurements published in publication PMC4709122 (Nature structural & molecular biology, 2015).

Target: UBC9 (human SUMO E2, untagged) (human, UniProt P63279)
Chain of UniProt P63279 (P63279 whole entry): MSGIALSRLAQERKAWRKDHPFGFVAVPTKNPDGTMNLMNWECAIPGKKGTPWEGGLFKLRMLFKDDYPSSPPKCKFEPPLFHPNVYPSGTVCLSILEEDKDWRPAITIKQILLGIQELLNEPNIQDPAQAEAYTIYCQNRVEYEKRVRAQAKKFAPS

- Kd: 140 nM
B1: SUMO2 (construct not stated for this experiment) (natural protein)
chain: not shown
